Measured values taken from PubChem BioAssay AID686978 (National Center for Advancing Translational Sciences (NCATS), 2013).
Out of some 420,000 compounds screened, about 64,000 (15%) were called active. The shares of active, inactive and inconclusive entries below differ from those in the screen. Calls follow the shape of the dose curve; as a rule, active = well fitted inhibition curve with a large enough effect; inconclusive = small, poorly fitted or top-dose-only effect; inactive = flat fitted curve, though single readings scatter. Potencies of inconclusive entries are left out as doubtful fits.

Experiment: qHTS for Inhibitors of human tyrosyl-DNA phosphodiesterase 1 (TDP1): qHTS in cells in absence of CPT; also: nearly all actives have a fitted effect of over 55% in size
Settings: DT40 Tdp1-/- hTDP1 cells, no CPT, ATP luminescence, 48 h; series mostly up to 46.2 µM
Outline: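 Chicken DT40 Tdp1-/- cells stably complemented with human TDP1 were seeded at 400 cells/well with DMSO in place of 20 nM camptothecin. After compound pinning, cells grew at least 48 hr at 37 °C; viability read by CellTiter-Glo luminescence.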
Potency is read from the fitted curve at half-maximal effect; tags tell the direction and shape of the fitted curve.

Row | Structure (SMILES) | Potency
1 | CCOc1cc(/C=C2\N=C3CCCCCN3C2=O)ccc1O | inconclusive [inhibitor, partial curve]
2 | CCOC(=O)c1sc(NC(=O)COc2ccccc2Cl)c(C(=O)OCC)c1C | inconclusive [inhibitor, partial curve]
3 | CC(C)(C)OC(=O)C[C@@H]1C/C=C\C[C@H](CC(=O)N(CCO)Cc2ccccc2)C(=O)NC[C@@H](c2ccccc2)OC1=O | active: 23.1 µM
4 | COc1ccc(NC(=O)Cc2c(SC)c3ccccc3n2Cc2ccccc2)cc1 | inconclusive [inhibitor, partial curve]
5 | CCCCCc1ccc(S(=O)(=O)NCCc2ccncc2)cc1 | active: 16.4 µM
6 | CCOc1ccc2oc(C(=O)NC(C)(C)CC)c(C)c2c1 | inconclusive [inhibitor, single point]
7 | CCN1CCN(CCCNC(=O)c2cc3c(=O)oc4ccc(C)cc4c3s2)CC1 | inconclusive [inhibitor, single point]
8 | CC1CCc2sc(C(=O)NC3CCN(Cc4ccccc4)CC3)cc2C1 (stereo not drawn) | active: 13 µM
9 | C[C@@]12C(=O)Nc3cc(F)c(F)cc3C(=O)N1[C@H]1c3cc(Cl)ccc3OC[C@@H]1[C@@H]2c1ccccc1 | inconclusive [inhibitor, single point]
10 | CC1CCN(C(=O)c2cc(-c3ccc(Cl)cc3)on2)CC1 | inactive
11 | C[C@@H]1CN([C@H](C)CO)C(=O)c2cccc(NC(=O)Nc3ccc(F)cc3)c2O[C@H]1CN(C)C(=O)Nc1ccc(C(F)(F)F)cc1 | inconclusive [inhibitor, single point]
12 | COc1ccccc1NC(=O)Nc1nc(CC(=O)Nc2cccc(F)c2)cs1 | inconclusive [inhibitor, single point]
13 | O=C1NC(Cc2c[nH]c3ccccc23)C(=O)N1Cc1ccc(CN2C(=O)NC(Cc3c[nH]c4ccccc34)C2=O)cc1 (stereo not drawn) | active: 23.1 µM
14 | COc1ccc(-c2c(C(F)(F)F)nn(C)c2NC(=O)CSCC(=O)O)cc1 | inactive
15 | Oc1c(Br)cc(Br)cc1/C=N/N1CCN(Cc2ccccc2)CC1 | inconclusive [inhibitor, single point]
16 | O=C1O[C@@H](c2ccccc2)C[C@@H](O)[C@H](O)CCCCc2ccccc21 | inconclusive [inhibitor, single point]
17 | COc1ccc(-c2cc(C(=O)NCc3ccc(C(F)(F)F)cc3)[nH]n2)c(C)c1 | inconclusive [inhibitor, single point]
18 | Cc1nn(C(C)(C)C)c(OC(=O)C2CCCC2)c1S(=O)(=O)c1ccccc1 | inconclusive [inhibitor, single point]
